Results reported in the supplement of paper PMC8728848.
The other results are listed elsewhere or left out.

Legend:
Test in all cases: glycan array binding signal (z-score within array); higher = stronger binding
Settings in all cases: glycan notation: IUPAC condensed, linker removed
[1] = biological target: Neu5Ac(a2-3)Gal(b1-4)[Fuc(a1-3)]GlcNAc
In short: (§1)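 Glycan array binding is given as a within-array Z-score, which can be read as non-binding when negative. The arrays, 3228 of them, came from the Consortium for Functional Glycomics database and were retained only where the protein sequence was available. Z-scores were averaged across arrays of the same protein sequence at different concentrations or buffers and across linkers.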

[2] = biological target: Neu5Ac(a2-3)Gal(b1-4)[Fuc(a1-3)]GlcNAc(b1-3)Gal
In short: as §1

[3] = biological target: Neu5Ac(a2-3)Gal(b1-4)[Fuc(a1-3)]GlcNAc(b1-3)Gal(b1-4)GlcNAc
In short: as §1

[4] = biological target: Neu5Ac(a2-3)Gal(b1-4)[Fuc(a1-3)]GlcNAc(b1-3)Gal(b1-4)[Fuc(a1-3)]GlcNAc(b1-3)Gal(b1-4)[Fuc(a1-3)]GlcNAc
In short: as §1

[5] = biological target: Neu5Ac(a2-3)Gal(b1-4)[Fuc(a1-3)]GlcNAc(b1-6)[Gal(b1-3)]GalNAc
In short: as §1

[6] = biological target: Neu5Ac(a2-3)Gal(b1-4)[Fuc(a1-3)]GlcNAc6S
In short: as §1

[7] = biological target: Neu5Ac(a2-3)Gal6S(b1-4)GlcNAc
In short: as §1

[8] = biological target: Neu5Ac(a2-3)Gal6S(b1-4)[Fuc(a1-3)]GlcNAc
In short: as §1

[9] = biological target: Neu5Ac(a2-3)GalNAc
In short: as §1

[10] = biological target: Neu5Ac(a2-3)GalNAc(b1-4)GlcNAc
In short: as §1

[11] = biological target: Neu5Ac(a2-3)[GalNAc(b1-4)]Gal(b1-4)Glc
In short: as §1

[12] = biological target: Neu5Ac(a2-3)[GalNAc(b1-4)]Gal(b1-4)GlcNAc
In short: as §1

[13] = biological target: Neu5Ac(a2-3)[Neu5Ac(a2-6)]GalNAc
In short: as §1

[14] = biological target: Neu5Ac(a2-6)Gal
In short: as §1

[15] = biological target: Neu5Ac(a2-6)Gal(b1-4)Glc
In short: as §1

[16] = biological target: Neu5Ac(a2-6)Gal(b1-4)GlcNAc
In short: as §1

[17] = biological target: Neu5Ac(a2-6)Gal(b1-4)GlcNAc(b1-2)Man(a1-3)[Gal(b1-4)GlcNAc(b1-2)Man(a1-6)]Man(b1-4)GlcNAc(b1-4)GlcNAc
In short: as §1

[18] = biological target: Neu5Ac(a2-6)Gal(b1-4)GlcNAc(b1-2)Man(a1-3)[GlcNAc(b1-2)Man(a1-6)]Man(b1-4)GlcNAc(b1-4)GlcNAc
In short: as §1

[19] = biological target: Neu5Ac(a2-6)Gal(b1-4)GlcNAc(b1-2)Man(a1-3)[GlcNAc(b1-2)Man(b1-4)GlcNAc(b1-2)Man(a1-6)]Man(b1-4)GlcNAc(b1-4)GlcNAc
In short: as §1

[20] = biological target: Neu5Ac(a2-6)Gal(b1-4)GlcNAc(b1-2)Man(a1-3)[Neu5Ac(a2-6)Gal(b1-4)GlcNAc(b1-2)Man(a1-6)]Man(b1-4)GlcNAc(b1-4)GlcNAc
In short: as §1

[21] = biological target: Neu5Ac(a2-6)Gal(b1-4)GlcNAc(b1-2)Man(a1-6)[Gal(b1-4)GlcNAc(b1-2)Man(a1-3)]Man(b1-4)GlcNAc(b1-4)GlcNAc
In short: as §1

[22] = biological target: Neu5Ac(a2-6)Gal(b1-4)GlcNAc(b1-2)Man(a1-6)[GlcNAc(b1-2)Man(a1-3)]Man(b1-4)GlcNAc(b1-4)GlcNAc
In short: as §1

[23] = biological target: Neu5Ac(a2-6)Gal(b1-4)GlcNAc(b1-3)Gal(b1-4)GlcNAc
In short: as §1

[24] = biological target: Neu5Ac(a2-6)Gal(b1-4)GlcNAc(b1-3)Gal(b1-4)[Fuc(a1-3)]GlcNAc(b1-3)Gal(b1-4)[Fuc(a1-3)]GlcNAc
In short: as §1

[25] = biological target: Neu5Ac(a2-6)Gal(b1-4)GlcNAc6S
In short: as §1

[26] = biological target: Neu5Ac(a2-6)GalNAc
In short: as §1

[27] = biological target: Neu5Ac(a2-6)GalNAc(b1-4)GlcNAc
In short: as §1

[28] = biological target: Neu5Ac(a2-8)Neu5Ac
In short: as §1

[29] = biological target: Neu5Ac(a2-8)Neu5Ac(a2-3)Gal(b1-4)Glc
In short: as §1

[30] = biological target: Neu5Ac(a2-8)Neu5Ac(a2-3)[GalNAc(b1-4)]Gal(b1-4)Glc
In short: as §1

[31] = biological target: Neu5Ac(a2-8)Neu5Ac(a2-8)Neu5Ac
In short: as §1

[32] = biological target: Neu5Ac(a2-8)Neu5Ac(a2-8)Neu5Ac(a2-3)Gal(b1-4)Glc
In short: as §1

[33] = biological target: Neu5Ac(a2-8)Neu5Ac(a2-8)Neu5Ac(a2-3)[GalNAc(b1-4)]Gal(b1-4)Glc
In short: as §1

[34] = biological target: Neu5Ac(a2-8)Neu5Ac(a2-8)Neu5Ac(a2-8)Neu5Ac(a2-3)[GalNAc(b1-4)]Gal(b1-4)Glc
In short: as §1

[35] = biological target: Neu5Ac(b2-6)Gal(b1-4)GlcNAc
In short: as §1

[36] = biological target: Neu5Ac(b2-6)GalNAc
In short: as §1

[37] = biological target: Neu5Ac9Ac(a2-6)Gal(b1-4)GlcNAc
In short: as §1

[38] = biological target: Neu5Gc(a2-3)Gal(b1-3)GlcNAc
In short: as §1

[39] = biological target: Neu5Gc(a2-3)Gal(b1-3)[Fuc(a1-4)]GlcNAc
In short: as §1

[40] = biological target: Neu5Gc(a2-3)Gal(b1-4)Glc
In short: as §1

[41] = biological target: Neu5Gc(a2-3)Gal(b1-4)GlcNAc
In short: as §1

[42] = biological target: Neu5Gc(a2-3)Gal(b1-4)[Fuc(a1-3)]GlcNAc
In short: as §1

[43] = biological target: Neu5Gc(a2-6)Gal(b1-4)GlcNAc
In short: as §1

[44] = biological target: Neu5Gc(a2-6)GalNAc
In short: as §1

[45] = biological target: Neu5Gc(b2-6)Gal(b1-4)GlcNAc
In short: as §1

B1: Langerin CRD (Homo sapiens), Q9UJ71 (protein)
chain: QVVSQGWKYFKGNFYYFSLIPKTWYSAEQFCVSRNSHLTSVTSESEQEFLYKTAGGLIYWIGLTKAGMEGDWSWVDDTPFNKVQSVRFWIPGEPNNAGNNEHCGNIKAPSLQAWNDAPCDKTFLFICKRPYVPSEPSAWSHPQFEK
- glycan array binding signal (z-score) [1]: -0.583
- glycan array binding signal (z-score) [2]: -0.389
- glycan array binding signal (z-score) [3]: -0.537
- glycan array binding signal (z-score) [4]: -0.339
- glycan array binding signal (z-score) [5]: -0.665
- glycan array binding signal (z-score) [6]: -0.222
- glycan array binding signal (z-score) [7]: 0.146
- glycan array binding signal (z-score) [8]: 0.345
- glycan array binding signal (z-score) [9]: -0.485
- glycan array binding signal (z-score) [10]: -0.602
- glycan array binding signal (z-score) [11]: -0.557
- glycan array binding signal (z-score) [12]: -0.565
- glycan array binding signal (z-score) [13]: -0.541
- glycan array binding signal (z-score) [14]: -0.522
- glycan array binding signal (z-score) [15]: -0.592
- glycan array binding signal (z-score) [16]: -0.505
- glycan array binding signal (z-score) [17]: -0.603
- glycan array binding signal (z-score) [18]: -0.263
- glycan array binding signal (z-score) [19]: -0.65
- glycan array binding signal (z-score) [20]: -0.61
- glycan array binding signal (z-score) [21]: -0.59
- glycan array binding signal (z-score) [22]: -0.342
- glycan array binding signal (z-score) [23]: -0.554
- glycan array binding signal (z-score) [24]: -0.586
- glycan array binding signal (z-score) [25]: -0.46
- glycan array binding signal (z-score) [26]: -0.619
- glycan array binding signal (z-score) [27]: -0.552
- glycan array binding signal (z-score) [28]: -0.544
- glycan array binding signal (z-score) [29]: -0.565
- glycan array binding signal (z-score) [30]: -0.637
- glycan array binding signal (z-score) [31]: -0.593
- glycan array binding signal (z-score) [32]: -0.636
- glycan array binding signal (z-score) [33]: -0.656
- glycan array binding signal (z-score) [34]: -0.732
- glycan array binding signal (z-score) [35]: -0.367
- glycan array binding signal (z-score) [36]: -0.529
- glycan array binding signal (z-score) [37]: -0.422
- glycan array binding signal (z-score) [38]: -0.539
- glycan array binding signal (z-score) [39]: -0.249
- glycan array binding signal (z-score) [40]: -0.695
- glycan array binding signal (z-score) [41]: -0.566
- glycan array binding signal (z-score) [42]: -0.635
- glycan array binding signal (z-score) [43]: -0.51
- glycan array binding signal (z-score) [44]: -0.387
- glycan array binding signal (z-score) [45]: -0.263
